Consider one substance from FireProtDB (doi:10.1093/protein/6.2.183).

The conditions of this series: Gallus gallus; pH 5.5; 35 °C; GdnHCl; CD; acetate 0.1 M; reversible: yes.

Take Lysozyme C wild type (letters omitted): the denaturant m value was 2.9 kcal/mol/M, the “denaturant midpoint (higher = more stable)” value stood at 3.62 M and the unfolding free energy was determined as 10.1 kcal/mol.
